{"source": "the supplement of paper PMC3334620", "note": "Over roughly 33,000 sequences, “E-score (-0.5 to 0.5)” has its median near -0.032; the highest 2% begin near 0.36. This is one part of the list."}
{"molecular_target": "T1, Sko1 (UniProt Q02100)", "T1 sequence": "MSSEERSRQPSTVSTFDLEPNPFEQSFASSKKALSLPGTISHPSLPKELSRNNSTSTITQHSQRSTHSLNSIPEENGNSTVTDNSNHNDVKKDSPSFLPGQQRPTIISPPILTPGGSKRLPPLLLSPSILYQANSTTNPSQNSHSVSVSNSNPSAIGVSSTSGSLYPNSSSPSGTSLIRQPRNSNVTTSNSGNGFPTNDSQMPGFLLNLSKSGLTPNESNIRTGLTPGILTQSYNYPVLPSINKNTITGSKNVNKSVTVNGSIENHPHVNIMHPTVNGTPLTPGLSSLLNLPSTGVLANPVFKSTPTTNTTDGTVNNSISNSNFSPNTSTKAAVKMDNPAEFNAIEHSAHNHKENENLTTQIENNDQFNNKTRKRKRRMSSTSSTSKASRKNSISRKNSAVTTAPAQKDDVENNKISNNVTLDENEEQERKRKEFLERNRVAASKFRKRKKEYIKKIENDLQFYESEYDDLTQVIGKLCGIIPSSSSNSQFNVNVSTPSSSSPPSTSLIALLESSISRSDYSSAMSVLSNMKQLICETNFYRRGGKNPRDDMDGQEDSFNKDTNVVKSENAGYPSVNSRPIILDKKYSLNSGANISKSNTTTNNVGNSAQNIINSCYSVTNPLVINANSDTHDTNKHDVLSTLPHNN", "experiment": "PBM E-score (8-mer binding enrichment) (E-score (-0.5 to 0.5)); higher = stronger / more preferred TF binding; most listed sequences are background and not binding sites", "conditions": "protein concentration: 200 nM; construct: GST-full length", "summary_of_the_method": "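E-scores (a modified Wilcoxon-Mann-Whitney statistic) were assigned by the Universal PBM Analysis Suite to every ungapped eight-base word pooled with its reverse complement. The input came from universal all-10-mer Agilent arrays made double-stranded by primer extension and probed with GST-tagged yeast transcription factors at about 100-200 nM. Fluorescent anti-GST detected bound protein, and masliner normalised the scans.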"}
{"sequence": "ACGCTCAC", "PBM E-score": 0.112}
{"sequence": "GTCAGATA", "PBM E-score": 0.197}
{"sequence": "CTGATTGC", "PBM E-score": 0.0319}
{"sequence": "GATACAGC", "PBM E-score": -0.0591}
{"sequence": "TCTTAAGA", "PBM E-score": 0.145}
{"sequence": "CTCGGAGA", "PBM E-score": -0.186}
{"sequence": "ATATCTAA", "PBM E-score": 0.184}
{"sequence": "AAATCGGG", "PBM E-score": -0.185}
{"sequence": "CTCCAATC", "PBM E-score": -0.165}
{"sequence": "ATATTGTC", "PBM E-score": 0.0716}
{"sequence": "GCCCAACC", "PBM E-score": -0.075}
{"sequence": "CAGACACG", "PBM E-score": -0.0625}
{"sequence": "ATGCTAAG", "PBM E-score": -0.0737}
{"sequence": "AACGTGTG", "PBM E-score": 0.272}
{"sequence": "AAGAGCCT", "PBM E-score": -0.166}
{"sequence": "CGCAAAAC", "PBM E-score": 0.26}
{"sequence": "ACTGCACT", "PBM E-score": -0.132}
{"sequence": "CACGAATG", "PBM E-score": 0.233}
{"sequence": "CTTGAGAC", "PBM E-score": -0.162}
{"sequence": "CATGACCG", "PBM E-score": 0.0181}
{"sequence": "ACGCCTTC", "PBM E-score": -0.141}
{"sequence": "AGACCTCT", "PBM E-score": -0.116}
{"sequence": "ATAGGTAA", "PBM E-score": 0.209}
{"sequence": "AGTTAATA", "PBM E-score": 0.2}
{"sequence": "AGACAGCT", "PBM E-score": -0.183}
{"sequence": "CTCACCGC", "PBM E-score": -0.171}
{"sequence": "GCACCCGC", "PBM E-score": -0.0958}
{"sequence": "CGAATCGC", "PBM E-score": -0.0166}
{"sequence": "AGGGTGAT", "PBM E-score": -0.111}
{"sequence": "ATCCTGCG", "PBM E-score": 0.00674}
{"sequence": "TCCTTCCA", "PBM E-score": -0.115}
{"sequence": "CATTATTC", "PBM E-score": 0.0126}
{"sequence": "GGGAAGAA", "PBM E-score": -0.152}
{"sequence": "ATAGGTCG", "PBM E-score": -0.195}
{"sequence": "ACACAAGG", "PBM E-score": -0.0621}
{"sequence": "ACTGCACA", "PBM E-score": -0.0526}
{"sequence": "CATCGTCG", "PBM E-score": -0.16}
{"sequence": "ATGCCCAT", "PBM E-score": -0.199}
{"sequence": "CGAAGACC", "PBM E-score": -0.266}
{"sequence": "CTTTGAGC", "PBM E-score": -0.228}
{"sequence": "CTCTTAAG", "PBM E-score": -0.0218}
{"sequence": "AGTCGCCA", "PBM E-score": -0.234}
{"sequence": "ATCCCCGG", "PBM E-score": -0.296}
{"sequence": "TCTCGTAA", "PBM E-score": 0.276}
{"sequence": "GTATTCAC", "PBM E-score": 0.221}
{"sequence": "CCCAGTCG", "PBM E-score": -0.115}
{"sequence": "AAACGTAC", "PBM E-score": 0.37}
{"sequence": "ATGCTACG", "PBM E-score": 0.305}
{"sequence": "ATACGTAG", "PBM E-score": 0.471}
{"sequence": "GTTCTGCA", "PBM E-score": 0.103}
{"sequence": "AATTTCTG", "PBM E-score": 0.133}
{"sequence": "AAATTTAA", "PBM E-score": 0.165}
{"sequence": "GAGCATAA", "PBM E-score": -0.00043}
{"sequence": "CCGTGCTA", "PBM E-score": -0.244}
{"sequence": "ACTCAGCC", "PBM E-score": -0.163}
{"sequence": "ACGAGCTG", "PBM E-score": -0.0394}
{"sequence": "CCATAGGC", "PBM E-score": -0.352}
{"sequence": "CAAGCGCA", "PBM E-score": 0.106}
{"sequence": "CTTCTGAC", "PBM E-score": 0.238}
{"sequence": "ATCACAGG", "PBM E-score": -0.0617}
{"sequence": "ACATGAAC", "PBM E-score": 0.0961}
{"sequence": "TGCTCCAA", "PBM E-score": -0.0806}
{"sequence": "CCACCAAC", "PBM E-score": -0.0746}
{"sequence": "TAAAGACA", "PBM E-score": 0.0889}
{"sequence": "GAATGCTC", "PBM E-score": -0.0513}
{"sequence": "CGCCTCTC", "PBM E-score": -0.301}
{"sequence": "CAGGCTGA", "PBM E-score": -0.152}
{"sequence": "CTCATAAC", "PBM E-score": 0.0609}
{"sequence": "ATGACAAT", "PBM E-score": 0.188}
{"sequence": "ACCGGCGT", "PBM E-score": 0.0278}
{"sequence": "ATGAATGC", "PBM E-score": 0.187}
{"sequence": "TCGCTACA", "PBM E-score": -0.243}
{"sequence": "ACCTAATC", "PBM E-score": 0.256}
{"sequence": "AAAGATAT", "PBM E-score": 0.152}
{"sequence": "CACGCCCG", "PBM E-score": -0.142}
{"sequence": "CCAGATTC", "PBM E-score": -0.283}
{"sequence": "TCGCAGCA", "PBM E-score": -0.00491}
{"sequence": "GAATGCCC", "PBM E-score": -0.261}
{"sequence": "ATGTGGAG", "PBM E-score": -0.0702}
{"sequence": "GAAACATC", "PBM E-score": 0.0562}
{"sequence": "ATTGCGCG", "PBM E-score": 0.306}
{"sequence": "ATCATTTA", "PBM E-score": 0.35}
{"sequence": "GACACGGC", "PBM E-score": -0.0578}
{"sequence": "GGAAGCAA", "PBM E-score": -0.063}
{"sequence": "CATAAGGC", "PBM E-score": 0.125}
{"sequence": "AATACAGT", "PBM E-score": 0.0046}
